Some of the results follow. The full chains were built here from the parent and the listed change. Inactive controls read about 0.05.
B1: TEV protease; numbered along this chain (parent)
chain: MGESLFKGPRDYNPISSSICHLTNESDGHTTSLYGIGFGPFIITNKHLFRRNNGTLVVQSLHGVFKVKDTTTLQQHLVDGRDMIIIRMPKDFPPFPQKLKFREPQREERICLVTTNFQTKSMSSMVSDTSCTFPSGDGIFWKHWIQTKDGQCGSPLVSTRDGFIVGIHSASNFTNTNNYFTSVPKNFMELLTNQEAQQWVSGWRLNADSVLWGGHKVFMVKPEEPFQPVKEATQL

Variants of: B1
Assay: raw area under fraction-flipped curve 0-4 h after induction (AUC4h, not background-subtracted), DNA-recorder readout of cleavage of the substrate (dimensionless); higher = more cleavage of the substrate by the protease variant
Details: temperature: 34 °C; time window: 0-4 h after rhamnose induction
Protocol: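 In vivo DNA recorder in E. coli TOP10(DE3) ΔrhaA at 34 °C. Each TEVp single-site mutant (parent TEVp 0) is paired with a single-site variant of the 7-mer TEVs (canonical ENLYFQ|S). The substrate sits between flexible linkers in a Bxb1-sfGFP-TEVs-SsrA fusion, so cleavage stabilises Bxb1 and speeds flipping of a recombination array, read by NGS. The value is the raw area under the fraction-flipped curve over 0-4 h after rhamnose induction (AUC4h), with ≥20 reads per time point. It is not background-subtracted; inactive controls average about 0.047.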
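Note: Bxb1 expression induced with 0.2% (w/v) L-rhamnose at OD600 near 0.5, cultures sampled hourly, flipped fraction per protease–substrate barcode pair counted by paired-end Illumina sequencing.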

Variant | area with substrate CNLYFQS | area with substrate DNLYFQS | area with substrate FNLYFQS | area with substrate GNLYFQS | area with substrate HNLYFQS | area with substrate KNLYFQS | area with substrate NNLYFQS | area with substrate PNLYFQS | area with substrate SNLYFQS | area with substrate TNLYFQS | area with substrate VNLYFQS | area with substrate WNLYFQS | area with substrate INLYFQS | area with substrate LNLYFQS | area with substrate MNLYFQS | area with substrate RNLYFQS | area with substrate YNLYFQS | area with substrate QNLYFQS
K221V | 0.0633 | 0.0572 | 0.0642 | 0.0612 | 0.0621 | 0.045 | 0.0726 | 0.0656 | 0.0626 | 0.0599 | 0.0563 | 0.0562 | – | – | – | – | – | –
P222E | 0.0768 | 0.0653 | – | 0.0541 | 0.0636 | 0.0668 | – | 0.0755 | – | 0.0589 | 0.0592 | – | 0.0547 | 0.0579 | 0.06 | – | – | –
E223H | 0.0781 | 0.0861 | 0.0694 | 0.0813 | 0.0507 | 0.0661 | 0.0815 | – | – | 0.0574 | 0.0717 | – | – | 0.0594 | 0.067 | – | – | –
E223M | 0.0554 | 0.0906 | 0.0562 | – | 0.0532 | 0.0458 | – | – | 0.0717 | 0.0463 | 0.0618 | – | – | 0.0753 | 0.071 | – | – | –
P225A | 0.0527 | 0.0852 | – | 0.0627 | 0.0578 | – | – | 0.0678 | 0.0673 | 0.0643 | 0.0524 | 0.0687 | – | 0.0686 | 0.0504 | 0.0594 | 0.0693 | –
P225D | 0.067 | 0.0061 | – | – | 0.0614 | – | – | 0.0594 | – | 0.0582 | – | 0.0701 | 0.0799 | 0.0625 | 0.0684 | – | 0.0472 | –
P225L | 0.0725 | 0.0812 | 0.0652 | – | 0.0724 | – | 0.0633 | 0.0864 | – | 0.0834 | 0.0711 | 0.0468 | – | – | 0.0661 | – | 0.0325 | –
P225V | 0.0708 | 0.0703 | 0.0667 | 0.044 | 0.0576 | 0.0606 | – | 0.0227 | – | 0.0616 | – | 0.0532 | – | 0.0737 | – | 0.0726 | – | 0.0733
F226I | 0.0527 | 0.0761 | – | – | – | 0.0683 | 0.0911 | – | 0.0643 | 0.0658 | 0.0712 | 0.0533 | 0.0716 | – | 0.0628 | – | 0.068 | –
Q227S | 0.0759 | 0.0841 | 0.0598 | – | 0.0656 | – | 0.0745 | 0.0705 | 0.0764 | 0.067 | 0.0547 | 0.0921 | 0.0941 | – | – | – | 0.075 | 0.0829
P228H | 0.0689 | 0.0543 | 0.0609 | 0.0588 | 0.0719 | – | – | – | – | 0.0742 | – | – | 0.0629 | 0.0667 | – | 0.0601 | – | –
P228Q | 0.0756 | 0.0854 | 0.0664 | 0.0651 | 0.0676 | 0.0694 | 0.0573 | – | 0.068 | 0.0582 | 0.0737 | 0.063 | 0.0551 | 0.0584 | 0.0696 | – | 0.0608 | 0.0711
P228V | 0.0651 | 0.0879 | 0.0635 | 0.074 | – | – | – | – | – | 0.0618 | 0.0732 | 0.0682 | – | 0.0696 | – | 0.0814 | – | –
V229G | 0.076 | 0.0917 | 0.0312 | 0.0598 | 0.0644 | 0.0616 | 0.0856 | 0.108 | 0.0554 | 0.0629 | 0.0865 | 0.0411 | – | 0.0734 | 0.0651 | – | 0.0619 | –
V229I | 0.0638 | 0.0949 | – | 0.0508 | 0.0664 | – | – | 0.0777 | 0.0691 | 0.0687 | – | 0.0834 | 0.0542 | 0.0797 | – | – | 0.0084 | –
V229M | 0.0621 | 0.076 | – | 0.0592 | 0.0695 | 0.0503 | – | 0.0934 | 0.0635 | 0.0579 | – | 0.0654 | – | – | 0.0517 | 0.0693 | 0.0661 | 0.0644

Variant | area with substrate CNLYFQS | area with substrate DNLYFQS | area with substrate FNLYFQS | area with substrate GNLYFQS | area with substrate HNLYFQS | area with substrate KNLYFQS | area with substrate NNLYFQS | area with substrate PNLYFQS | area with substrate SNLYFQS | area with substrate TNLYFQS | area with substrate VNLYFQS | area with substrate WNLYFQS | area with substrate INLYFQS | area with substrate LNLYFQS | area with substrate MNLYFQS | area with substrate RNLYFQS | area with substrate YNLYFQS | area with substrate QNLYFQS
K230F | 0.0604 | 0.0838 | 0.0612 | – | 0.0667 | 0.069 | – | 0.0686 | – | 0.0624 | – | 0.064 | 0.065 | 0.0646 | 0.0746 | – | 0.0644 | –
K230I | 0.0617 | 0.0685 | – | 0.0555 | 0.063 | – | – | – | 0.0666 | 0.0633 | – | 0.0577 | 0.0634 | 0.0677 | 0.0495 | – | – | 0.0532
K230P | 0.0649 | 0.103 | 0.0676 | 0.0576 | – | 0.0899 | – | 0.0707 | 0.0601 | 0.0727 | – | 0.049 | 0.0471 | 0.0644 | 0.0994 | 0.0718 | 0.0613 | –
E231A | 0.0445 | 0.079 | – | 0.0855 | 0.0661 | – | – | 0.0617 | – | 0.0659 | – | 0.0638 | – | 0.0667 | – | – | 0.074 | –
E231Q | 0.0859 | 0.0689 | 0.0561 | – | 0.0788 | – | 0.0615 | 0.065 | 0.0583 | 0.09 | 0.097 | – | 0.0827 | – | – | – | 0.0684 | –
T233N | 0.0591 | 0.0188 | – | 0.0679 | 0.0703 | 0.0757 | – | – | 0.0641 | 0.066 | – | 0.0646 | – | – | – | – | – | –
T233R | 0.0487 | 0.0818 | 0.0731 | 0.0663 | 0.067 | 0.0654 | – | – | – | 0.0652 | 0.0679 | – | 0.0644 | – | 0.0634 | – | 0.0608 | –
Q234F | 0.0619 | 0.0721 | 0.0563 | 0.0608 | – | 0.0591 | – | 0.0816 | – | 0.0519 | 0.0712 | – | 0.0457 | 0.0647 | – | – | 0.0685 | 0.018
Q234L | 0.0671 | 0.0756 | – | – | 0.0615 | 0.0946 | 0.0785 | 0.0502 | 0.0645 | 0.0517 | 0.0827 | 0.0551 | 0.0677 | 0.128 | 0.103 | – | 0.0401 | 0.0726
L112E | – | 0.0615 | 0.0467 | 0.0684 | 0.0557 | 0.0601 | – | 0.0579 | 0.0446 | 0.0604 | 0.0554 | 0.0524 | 0.088 | – | 0.055 | 0.0563 | – | –
H168C | – | 0.0581 | – | – | 0.0707 | 0.0592 | – | – | – | 0.0732 | – | – | 0.0458 | 0.0589 | 0.0706 | – | – | –
T176A | – | 0.0744 | 0.0611 | – | – | 0.0607 | – | 0.0603 | 0.0615 | 0.0619 | – | – | 0.0581 | 0.0651 | 0.0814 | – | 0.068 | –
V200M | – | – | 0.0646 | 0.0532 | 0.0599 | – | – | 0.0613 | – | 0.0375 | – | – | 0.074 | – | – | – | – | –
G8Q | – | – | – | – | 0.0688 | 0.1 | – | 0.0416 | 0.0795 | – | 0.108 | 0.0588 | 0.0613 | – | – | – | – | –
T192F | – | – | – | – | – | – | – | 0.0696 | 0.068 | 0.0593 | – | 0.0623 | – | – | – | – | – | –
R160S | – | – | – | – | – | – | – | – | – | – | – | – | – | – | – | – | 0.0582 | –

— the supplement of paper PMC12217912
